Results on 57 compounds are retold here after PMC4336329 (PLoS ONE, 2015).

Structures are written as SMILES. Among all 310,000 compounds or so, about 2,200 (0.71%) showed an effect of 50% or more. Effects have a minus sign here. Some of the results follow.

Chain of human ether-à-go-go-related gene (hERG) potassium channel (Q12809 whole entry, looked up): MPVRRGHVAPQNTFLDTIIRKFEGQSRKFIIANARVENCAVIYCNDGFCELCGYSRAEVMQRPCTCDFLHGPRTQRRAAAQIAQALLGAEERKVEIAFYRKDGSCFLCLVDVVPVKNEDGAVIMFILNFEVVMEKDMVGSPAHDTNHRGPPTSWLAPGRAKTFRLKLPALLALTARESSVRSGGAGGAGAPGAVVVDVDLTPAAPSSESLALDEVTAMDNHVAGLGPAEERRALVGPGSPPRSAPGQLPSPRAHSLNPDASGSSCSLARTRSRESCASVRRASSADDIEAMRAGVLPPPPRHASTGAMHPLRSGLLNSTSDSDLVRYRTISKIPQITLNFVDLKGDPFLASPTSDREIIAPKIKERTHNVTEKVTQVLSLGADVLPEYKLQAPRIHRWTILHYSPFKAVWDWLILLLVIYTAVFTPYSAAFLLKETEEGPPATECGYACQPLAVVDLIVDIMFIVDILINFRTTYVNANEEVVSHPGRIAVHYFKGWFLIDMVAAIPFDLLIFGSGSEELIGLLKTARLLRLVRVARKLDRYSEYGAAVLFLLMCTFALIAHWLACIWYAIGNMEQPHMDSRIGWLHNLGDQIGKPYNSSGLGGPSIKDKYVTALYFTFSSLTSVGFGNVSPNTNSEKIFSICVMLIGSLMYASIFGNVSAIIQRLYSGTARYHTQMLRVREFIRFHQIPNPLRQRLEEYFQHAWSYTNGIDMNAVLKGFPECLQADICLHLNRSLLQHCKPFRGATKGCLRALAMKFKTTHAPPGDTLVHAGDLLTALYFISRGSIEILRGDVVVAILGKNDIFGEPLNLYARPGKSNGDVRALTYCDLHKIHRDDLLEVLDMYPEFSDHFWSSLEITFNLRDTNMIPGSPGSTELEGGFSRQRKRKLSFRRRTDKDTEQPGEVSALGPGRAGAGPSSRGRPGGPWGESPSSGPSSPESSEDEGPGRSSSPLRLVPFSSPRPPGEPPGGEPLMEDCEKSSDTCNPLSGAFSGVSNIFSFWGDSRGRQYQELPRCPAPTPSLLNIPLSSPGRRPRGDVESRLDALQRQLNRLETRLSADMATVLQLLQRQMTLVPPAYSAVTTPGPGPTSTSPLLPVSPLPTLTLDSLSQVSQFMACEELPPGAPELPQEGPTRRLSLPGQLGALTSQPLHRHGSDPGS

The experiment has as its target human ether-à-go-go-related gene (hERG) potassium channel (human, UniProt Q12809). The experiment in a line: primary screen, population patch clamp on CHO cells stably expressing hERG.
Consider `COc1ccc(Cc2nnc(Nc3ccc4c(c3)OCCO4)[nH]c2=O)cc1`, for which the “hERG current change (%, negative = inhibition) at 1uM” value was found to be 12.9%.

On to `CN(C)CCOc1cc(Cl)cc(Cl)c1`, for which the “hERG current change (%, negative = inhibition) at 1uM” value was 6.47%.

As for `C/C(=N\NC(=O)c1[nH]c2c([N+](=O)[O-])cc(C)cc2c1-c1ccccc1)c1cccnc1`, the “hERG current change (%, negative = inhibition) at 1uM” value was determined as 11.8%.

`CC1CCN(Cc2nc(-c3ccc(Cl)cc3)no2)CC1`: the “hERG current change (%, negative = inhibition) at 1uM” value is on record as 9.77%.

In the case of `C=CCOc1cc(C)nc(-c2ccccc2O)n1`, the “hERG current change (%, negative = inhibition) at 1uM” value turned out to be 0.0391%.

Take `CC(C)CCNC(=O)CN(CC1CCCO1)C(=O)CCC(=O)Nc1ccccn1` (stereo not drawn): the “hERG current change (%, negative = inhibition) at 1uM” value was 2.16%.

On to `C/C(CC(=O)Nc1ccc(N(C)C)cc1)=N\NC(=O)c1ccccc1O`, for which the “hERG current change (%, negative = inhibition) at 1uM” value amounted to 14.9%.

Take `CCOC(=O)Cc1csc(NC(=O)c2ccc(N3CCOCC3)cc2[N+](=O)[O-])n1`: the “hERG current change (%, negative = inhibition) at 1uM” value worked out at 3.6%.

`CC(CN1CCCCC1)OC(=O)/C=C/c1ccccc1.Cl` (stereo not drawn): the “hERG current change (%, negative = inhibition) at 1uM” value was -43.6%.

With `Cn1nc(-c2ccc(Cl)cc2)nc2c(=O)n(C)c(=O)nc1-2`, the “hERG current change (%, negative = inhibition) at 1uM” value is given as -4.03%.

For the compound `O=C(NCc1ccc2c(c1)OCO2)c1cccnc1`, the “hERG current change (%, negative = inhibition) at 1uM” value stood at 12.8%.

On to `Cc1csc(SCC(=O)NC(=O)C2CCCCC2)n1`, for which the “hERG current change (%, negative = inhibition) at 1uM” value is on record as 19.2%.

In the case of `Cc1ccc2c(c1)N(C)/C(=C/c1cccc[n+]1C)S2.[I-]`, the “hERG current change (%, negative = inhibition) at 1uM” value is recorded as -16.2%.

`O=C(O)C1=CC[C@@H](c2ccc(Cl)cc2)N(S(=O)(=O)c2ccc(Cl)cc2)[C@H]1c1ccc(F)cc1`: the “hERG current change (%, negative = inhibition) at 1uM” value was determined as 11.4%.

Turning to `Cc1cc(C)cc(C(=O)N2CCN(c3ccccn3)CC2)c1`, the “hERG current change (%, negative = inhibition) at 1uM” value worked out at 9.08%.

On to `CC(C)Cn1c(=O)c(-[n+]2ccccc2)c([O-])c2ccccc21`, for which the “hERG current change (%, negative = inhibition) at 1uM” value is -3.91%.

For the compound `OC(CN1C2=NCCN2c2ccccc21)c1ccc(Br)cc1` (stereo not drawn), the “hERG current change (%, negative = inhibition) at 1uM” value was -63%.

For the compound `CC(C)c1ccc(/C=C/C(=O)NCCC2=CCCCC2)cc1`, the “hERG current change (%, negative = inhibition) at 1uM” value was 5.19%.

Turning to `C=CCOc1ccccc1CN1CCC(Oc2cc(C(=O)NC3CC3)ccc2OC)CC1`, the “hERG current change (%, negative = inhibition) at 1uM” value is -66.6%.

In the case of `CCn1c(COc2ccccc2C)nnc1SCc1nc2ccccc2c(=O)[nH]1`, the “hERG current change (%, negative = inhibition) at 1uM” value is listed as 10.1%.

With `Cn1c(=O)cc(N)n(-c2ccccc2)c1=O`, the “hERG current change (%, negative = inhibition) at 1uM” value was 9.32%.

As to `COc1ccccc1/C=C/C=N/n1c(-c2cc(C)[nH]n2)n[nH]c1=S`, the “hERG current change (%, negative = inhibition) at 1uM” value is listed as 18.7%.

Turning to `Cc1ccc(C(=O)OCC(=O)Nc2ccc3c(c2)OCO3)c(O)c1`, the “hERG current change (%, negative = inhibition) at 1uM” value came out at 5.93%.

Take `COc1cccc(/C(N)=N/OC(=O)Cc2ccccc2[N+](=O)[O-])c1`: the “hERG current change (%, negative = inhibition) at 1uM” value is 7.37%.

As to `COc1ccc(CN(CC2CCC(C(=O)O)CC2)C(=S)Nc2ccccc2OC)cc1` (stereo not drawn), the “hERG current change (%, negative = inhibition) at 1uM” value was determined as 13.4%.

`CCN(CC)c1ncnc2c1[nH]c1ccccc12`: the “hERG current change (%, negative = inhibition) at 1uM” value is -8.73%.

On to `O=C(NC1CCc2ccccc21)C1CCN(S(=O)(=O)c2ccc(Cl)cc2)CC1` (stereo not drawn), for which the “hERG current change (%, negative = inhibition) at 1uM” value turned out to be 8.36%.

As for `CCOC(=O)Cc1c(C)nc2c(-c3ccc(Cl)cc3)c(C)[nH]n2c1=O`, the “hERG current change (%, negative = inhibition) at 1uM” value stood at 10.9%.

As to `O=C(NNC(=S)NCCc1ccccc1)c1ccc(Br)s1`, the “hERG current change (%, negative = inhibition) at 1uM” value was 4.11%.

Consider `CC(NC(=O)NC1CCCCC1)c1ccccc1` (stereo not drawn), for which the “hERG current change (%, negative = inhibition) at 1uM” value stood at 6.96%.

As for `CC(C)N(Cc1ccccc1)C(=S)Nc1ccc(F)cc1`, the “hERG current change (%, negative = inhibition) at 1uM” value turned out to be 2.98%.

`O=C(CNC(=O)c1ccc2ccccc2c1)NCc1ccccc1F`: the “hERG current change (%, negative = inhibition) at 1uM” value is recorded as 0.73%.

In the case of `Cn1c(CCC(=O)Nc2ccc(N3CCOCC3)cc2)nc(=O)c2ccccc21`, the “hERG current change (%, negative = inhibition) at 1uM” value came to 15.8%.

For the compound `O=C(COC(=O)c1cnccn1)Nc1ccc(Cl)cn1`, the “hERG current change (%, negative = inhibition) at 1uM” value was 26.4%.

Regarding `CC(=O)NC(CC(=O)NC1CCCc2ccccc21)c1ccccc1` (stereo not drawn), the “hERG current change (%, negative = inhibition) at 1uM” value is 11.3%.

As for `N/C(=N\OC(=O)COc1ccc(Cl)cc1Cl)c1cccnc1`, the “hERG current change (%, negative = inhibition) at 1uM” value stood at 20.3%.

Regarding `CNc1nc(-c2ccc(S(=O)(=O)N3CCCCC3)cc2)cs1`, the “hERG current change (%, negative = inhibition) at 1uM” value stood at 9.51%.

`CCN(Cc1ccc(OC)c(COC)c1)CC1CCCN(CCc2cccc(OC)c2)C1` (stereo not drawn): the “hERG current change (%, negative = inhibition) at 1uM” value was 8.68%.

As to `COc1cc(C(c2c(O)nc(SC)[nH]c2=O)c2c(O)nc(SC)[nH]c2=O)cc(OC)c1OC`, the “hERG current change (%, negative = inhibition) at 1uM” value is 16.4%.

In the case of `COc1ccc(NS(=O)(=O)c2cc(NC(=O)c3ccc(C)s3)ccc2N2CCOCC2)cc1`, the “hERG current change (%, negative = inhibition) at 1uM” value stood at 9.16%.

Consider `CC(=O)Nc1ccc2c(c1)nc1n2CCSC1`, for which the “hERG current change (%, negative = inhibition) at 1uM” value was 11.6%.

As to `O=C(NCCCN1CCOCC1)c1ccc2c(c1)N(Cc1ccc(Cl)cc1)C(=O)c1ccccc1S2=O` (stereo not drawn), the “hERG current change (%, negative = inhibition) at 1uM” value was -1.98%.

With `COc1cccc(OCc2cc(C(=O)NCc3ccccn3)no2)c1`, the “hERG current change (%, negative = inhibition) at 1uM” value was determined as 8.46%.

`COc1ccc(N2CSC3=C(C#N)C(c4ccc(OC)c(OC)c4)CC(=O)N3C2)c(OC)c1` (stereo not drawn): the “hERG current change (%, negative = inhibition) at 1uM” value was -5.23%.

As for `O=C(O)c1cccc(NC(=O)c2cc(NC(=O)c3ccccc3)cc(NC(=O)c3ccccc3)c2)c1`, the “hERG current change (%, negative = inhibition) at 1uM” value is given as 13.6%.

On to `CCOc1cc(C(=O)NCCOC)cc(OCC)c1OCC`, for which the “hERG current change (%, negative = inhibition) at 1uM” value is on record as 9.5%.

Consider `CCOCCn1c(=O)c2c(nc3n2CCN3c2ccc(CC)cc2)n(C)c1=O`, for which the “hERG current change (%, negative = inhibition) at 1uM” value is listed as 9.98%.

Take `O=C(c1ccc(Br)o1)N1CCN(C23CC4CC(CC(C4)C2)C3)CC1`: the “hERG current change (%, negative = inhibition) at 1uM” value worked out at 1.54%.

In the case of `Cc1ccc(C2CC(=O)NC(SCC(=O)Nc3nccs3)=C2C#N)cc1` (stereo not drawn), the “hERG current change (%, negative = inhibition) at 1uM” value came to 7.51%.

Turning to `COCCN1CC(=O)N2C(c3cccc(OC)c3)c3[nH]c4ccccc4c3C[C@H]2C1=O` (stereo partly drawn), the “hERG current change (%, negative = inhibition) at 1uM” value is recorded as -11.7%.

For the compound `COc1ccc(/C(C)=N/NC(=O)CNC(=O)C2COc3ccccc3O2)c(OC)c1` (stereo not drawn), the “hERG current change (%, negative = inhibition) at 1uM” value is 10.6%.

On to `C=CCOc1ccc(CN(C)c2ccc(S(=O)(=O)N3CCN(C)CC3)cc2[N+](=O)[O-])cc1`, for which the “hERG current change (%, negative = inhibition) at 1uM” value was 4.92%.

On to `Cc1ccc(S(=O)(=O)/N=C/N(C)C)cc1`, for which the “hERG current change (%, negative = inhibition) at 1uM” value is 7.82%.

Take `COc1cc(-n2c(=O)c3ccccc3n(Cc3cccc(F)c3)c2=O)cc(OC)c1OC`: the “hERG current change (%, negative = inhibition) at 1uM” value worked out at 33.5%.

For the compound `COc1ccc(C2=NC(c3ccccc3)CO2)cc1` (stereo not drawn), the “hERG current change (%, negative = inhibition) at 1uM” value was -0.0278%.

Consider `CCCSc1nc(N2CCOCC2)c2c(c1C#N)CC(C)(C)SC2`, for which the “hERG current change (%, negative = inhibition) at 1uM” value is recorded as 2.01%.

Turning to `CCCCCOC(=O)c1ccc(OC(=O)c2cncc(Br)c2)cc1`, the “hERG current change (%, negative = inhibition) at 1uM” value was 3.96%.
